# PMC12040169 (PLOS Biology, 2025)
# This is one part of the list.
# System: T1, C. trachomatis L2/434/Bu expressing GFP (CTL2-GFP)
# T1 construct: L2/434/Bu GFP intracellular growth in HeLa cells
# Parameters: species or system HeLa; C. trachomatis total inclusion area by high-content imaging, normalised to DMSO
# Conditions: total inclusion area; 28.5 h, 10 µM; inhibitor
# How it was run: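 Bulk GFP and resorufin signals were read first. Wells were then fixed, stained with Hoechst and imaged to detect GFP inclusions and host nuclei. MICs followed the previously described calculation.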
row,Compound,% of control remaining
1,COc1ccc(C(=O)NC(N2CCCCC2)C(Cl)(Cl)Cl)cc1 (stereo not drawn) [CBK087021],102.33
2,COc1ccc(S(=O)(=O)N2CCOCC2)cc1C(=O)Nc1ccc2c(c1)OCO2 [CBK265548],105.215
3,Cn1cc(CC2CCN(Cc3ccncc3)C2)cn1 (stereo not drawn) [CBK304796],66.0385
4,CCC1CCCCN1C(=O)c1cccc(C)n1 (stereo not drawn) [CBK076750],99.2062
5,Cc1cc2c(o1)c1cnn(CC(=O)N(C(C)C)C(C)C)c(=O)c1n2C [CBK282392],97.7372
6,CC(c1ccco1)N(C)Cc1c[nH]nc1-c1ccc(O)cc1 (stereo not drawn) [CBK283303],94.5586
7,O=C(CCCN1C(=O)/C(=C/c2ccc3c(c2)OCO3)SC1=S)Nc1ccc([N+](=O)[O-])cc1 [CBK264623],90.5912
8,Nc1ncc(-c2cccc(Br)c2)nc1NCCCO [CBK063603],71.1329
9,CC1=NN(c2ccc([N+](=O)[O-])cc2)C(=O)/C1=C/NCc1ccc(S(N)(=O)=O)cc1 [CBK262670],105.586
10,Cc1cccc(-c2csc3c(=O)[nH]c(N4CCC(C(=O)N5CCOCC5)CC4)nc23)c1 [CBK215644],128.168
11,COc1cc(/C=N/c2ccc(/N=C/c3cc(Br)c(O)c(OC)c3)cc2)cc(Br)c1O [CBK261843],107.569
12,Cc1ccc(CC(C#N)Sc2nc(CN3CCOCC3)nc3ccccc23)cc1 (stereo not drawn) [CBK298321],101.406
13,O=C(CC1NCCNC1=O)Nc1ccc2c(c1)OCCO2 (stereo not drawn) [CBK266837],92.6667
14,COc1ccc(CCNC(=O)C(=O)Nc2ccc(C)c(C)c2)cc1 [CBK263222],71.3404
15,c1ncc(OC2CCN(CCN3CCOCC3)C2)nc1OCCN1CCOCC1 (stereo not drawn) [CBK084492],73.5431
16,COCCn1nnnc1C(c1cc2cc(C)cc(C)c2[nH]c1=O)N1CCOCC1 (stereo not drawn) [CBK068815],90.4383
17,CCN(CC(O)COc1ccc2ccccc2c1)S(=O)(=O)O (stereo not drawn) [CBK261113K],100.923
18,COc1ccc(NC2=NN(c3ccccc3)C(=O)C2)cc1 [CBK288085],90.7951
19,Cc1noc(CN2CCN(c3ccc4nnc(C(F)(F)F)n4n3)CC2)n1 [CBK305566],82.5836
20,O=C(Cn1cccn1)Nc1ccc2c(c1)CN(Cc1ccccc1)C2 [CBK281829],109.347
21,COc1ccc(CCN2C(=O)N[C@@H](CCC(=O)NC3CC3)C2=O)cc1 [CBK288001],72.7106
22,COc1ccc(Nc2cc(-c3cccc(N)c3)ncn2)c(C)c1 [CBK091035],126.845
23,COc1ccccc1CN(CC(C)(C)CN)C(=O)Nc1ccc(C)c([N+](=O)[O-])c1 [CBK026816C],78.0024
24,CCOc1cc2c(cc1OCC)C(c1ccc(OC)c(O)c1)NCC2 (stereo not drawn) [CBK074443C],80.4336
25,Cc1noc(C)c1S(=O)(=O)NCc1ccc(C(F)(F)F)c(F)c1 [CBK062112],80.9814
26,CN1CCN(CCC(=O)N/N=C/c2ccsc2)CC1 [CBK261505],111.7

row,Compound,% of control remaining
1,O=C(Cc1c[nH]c2ccccc12)N1CCC2(CCN(C(=O)c3ccc4[nH]c(=O)[nH]c4c3)C2)C1 (stereo not drawn) [CBK131452],112.529
2,O=C(NCc1cccnc1)C1CCCN(c2nc3c(-c4ccccc4)csc3c(=O)[nH]2)C1 (stereo not drawn) [CBK215492],91.8726
3,Cc1cc(C(=O)Nc2sc(C)c(C)c2C(=O)NCc2cccnc2)no1 [CBK268134],86.4988
4,O=S(=O)(NCc1cccc(Cl)c1)c1csc2ccnc(N3CCNCC3)c12 [CBK045595C],78.3357
5,CCCS(=O)(=O)NC(C)c1cnn(-c2ccc(OC)cc2)c1C (stereo not drawn) [CBK307319],79.6463
6,CC(C)c1ccc(S(=O)(=O)N2CCN(c3ccc(C#N)cc3)CC2)cc1 [CBK044404],61.9265
7,Cc1ccccc1-c1ccccc1CC1(C(N)=O)CCN(C(=O)c2cccc(F)c2)CC1 [CBK285726],105.44
8,CCn1c(CC2CCN(C(=O)CCn3cc(C)cn3)CC2)nn(C)c1=O [CBK307584],85.1127
9,CCCc1nn(CC(=O)NC2CC2)c(=O)c2cc3ccsc3n12 [CBK284146],92.1312
10,Cn1cc(C2CNCCN2C(=O)c2coc3ccccc23)cn1 (stereo not drawn) [CBK304270C],71.6732
11,Cc1oc2ccc(O)cc2c1C(=O)N(C)CCN1CCCCC1 [CBK282158],83.3619
12,CCOc1cccc(NC(=O)/C(C#N)=C\c2cc(C)n(-c3ccc4c(c3)OCO4)c2C)c1 [CBK263191],90.463
13,CS(=O)(=O)Nc1cccc(C2=NN(C(=O)CCC(=O)O)C(c3cccc(F)c3)C2)c1 (stereo not drawn) [CBK268804],129.097
14,CC(CNS(=O)(=O)c1ccc(N2CCCC2=O)cc1)Cn1cccn1 (stereo not drawn) [CBK304656],104.407
15,Cc1ccc(-n2c(=O)[nH]cc(C(=O)Nc3cccc(Cl)c3C)c2=O)cc1C [CBK287551],96.456
16,c1csc(N2CCCN(c3nccn4cnnc34)CC2)n1 [CBK305190],1.972
17,COc1ncc(-c2ccc(NCCn3cc[nH]c3=O)nc2)c(OC)n1 [CBK037719],101.979
18,CC1(C)CC(N(Cc2ccccc2)C(=O)Cc2ccco2)CCO1 (stereo not drawn) [CBK019561],82.0529
19,O=[N+]([O-])c1ccc2[nH]c3c(c2c1)CCCC3NC1CCN(CCc2ccccc2)CC1 (stereo not drawn) [CBK262874],7.552
20,Cc1cccc(C(=O)Nc2nc3ccc(S(C)(=O)=O)cc3s2)c1 [CBK287323],116.488
21,Cc1cccc(S(=O)(=O)N2CCN(C)CC2)c1 [CBK097893],99.7825
22,CCOC(=O)c1noc2nc(C)n(Cc3nc(-c4ccccc4)oc3C)c(=O)c12 [CBK294400],107.12
23,Cc1cc(Cl)c(S(=O)(=O)Nc2cccnc2)cc1OCC(N)=O [CBK266523],125.528
24,COc1ccccc1CN1CC[C@H]2[C@@H](C1)[C@H](c1ccsc1)CN2C(=O)c1ccccc1 [CBK285617],75.7793
25,O=C(Nc1ccc(-c2nc3ccc(-c4nc5ccc(NC(=O)c6cccc7ccccc67)cc5[nH]4)cc3[nH]2)cc1)c1cccc2ccccc12 [CBK261161],95.521
26,Cc1nn(C)cc1S(=O)(=O)N1CCn2cccc2C1C(C)C (stereo not drawn) [CBK282787],87.7544

row,Compound,% of control remaining
1,COc1cc(/C=C2\SC(=S)N(c3cccc(C(=O)O)c3)C2=O)cc([N+](=O)[O-])c1O [CBK265281],99.2409
2,O=C(NCc1cccc2ccccc12)N1CCCCC1CO (stereo not drawn) [CBK156167],98.0988
3,COc1ccc(-c2nnc3c4ccccc4c(C)nn23)cc1S(=O)(=O)NC(C)c1ccccc1 (stereo not drawn) [CBK266605],121.571
4,Cc1nn(-c2ccc(F)cc2)c2[nH]c(=O)c(CNC(C)(C)C)cc12 [CBK283120],103.243
5,COc1cc(C)c(Cl)cc1S(=O)(=O)NCCCN1CCOCC1 [CBK269044],84.2319
6,Cc1cccc(C)c1NC(=O)CC(CN1CCN(Cc2c(C)noc2C)CC1)C(=O)O (stereo not drawn) [CBK286715],55.4718
7,O=C(OCc1ccccc1)N1CCN(C(=O)c2cc3cc(Br)ccc3[nH]2)CC1 [CBK154991],56.8046
8,O=C(Cc1c[nH]c2ccccc12)N1CCC2(CCCN(Cc3c(F)cccc3F)C2)C1 (stereo not drawn) [CBK132031],92.1182
9,CC(=O)OCC(=O)N1CCC(N(C)Cc2ccc(-c3ccc(S(C)(=O)=O)cc3)nc2)CC1 [CBK165268],21.0157
10,O=C(Nc1ccc(O)cc1C(=O)O)c1ccc2c(c1)C(=O)N(Cc1ccco1)C2=O [CBK267418],92.9444
11,N=C(N)Nc1nc(-c2ccccc2)c2cc(F)ccc2n1 [CBK267350],19.699
12,CC(C)(C)OC(=O)N1CCC(OCc2cn(-c3ccc(S(C)(=O)=O)cc3)nn2)CC1 [CBK149478],87.9033
13,CCCCNc1cc(C)nc2c(-c3ccccc3)cnn12 [CBK287792],113.282
14,O=S(=O)(c1csc2ccccc12)N1CCOCC1 [CBK062401],103.158
15,OCCC1CCCCN1c1cncc(C2CCOC2)n1 (stereo not drawn) [CBK066127],68.2146
16,O=C(O)/C=C/C(=O)NNC(=O)c1ccccc1O [CBK261789],110.262
17,Cn1cncc1CN(CCCn1ccnc1)Cc1ccccc1F [CBK282960],87.0549
18,Cc1cc(C)c2sc(NC(=O)c3ccccc3)nc2c1 [CBK287614],115.466
19,CC(=O)N1CCOC(CNc2nc(C(C)(C)C)nc3c2cnn3C)C1 (stereo not drawn) [CBK307469],52.1614
20,Cc1nnc(Sc2cccc(C(F)(F)F)n2)s1 [CBK115222],104.4
21,COc1cccc(CNCCN2CCOCC2)c1O [CBK278183C],106.107
22,CC(O)CNc1nccnc1-c1cccc(CO)c1 (stereo not drawn) [CBK037056],105.805
23,O=C1CCCN1CCCNc1nccnc1-c1ccc(CO)cc1 [CBK036860],54.6859
24,Nc1nncn1C(=O)c1ccccc1SCc1ccccc1 [CBK270120],86.5152
25,COc1ccc(NC(=O)Nc2cc3cccnc3c(Br)n2)c(C)c1 [CBK063294],108.619
26,Cc1ccc(S(=O)(=O)CCc2noc(-c3n[nH]c4ccccc34)n2)cc1 [CBK288598],81.2154
